{"source": "PubChem BioAssay AID624296", "about": "(National Center for Advancing Translational Sciences (NCATS), 2012)", "note": "Screen size: about 350,000 compounds; about 9,900 (2.8%) were called active. The shares of active, inactive and inconclusive entries below differ from those in the screen. Calls come from the whole dose curve; as a rule, active = well fitted activation curve with a large enough effect; inconclusive = small, poorly fitted or top-dose-only effect; inactive = no such curve, though single readings can be large or run the other way. Potencies of inconclusive entries are left out as doubtful fits. Potency is the fitted concentration of half-maximal effect; tags give direction and shape of the fitted curve.", "data": [{"assay": "A quantitative high throughput screen for small molecules that induce DNA re-replication in MCF 10a normal breast cells; note: nearly all actives have a fitted effect of over 50% in size; for activity, positive = re-replication: % of control where 0% means no effect.", "details": "MCF 10A DNA re-replication, Hoechst nuclear intensity, 48 h; activity, positive = re-replication: at 46.1 µM (top of the series)", "values": [{"smiles": "C=CCn1c(SCC(=O)N(C(C)CC)C2CCS(=O)(=O)C2)nc2ccccc2c1=O", "note": "(configuration not stated)", "activity, positive = re-replication": "inactive: 0.626%"}, {"smiles": "Cc1cc(Br)ccc1S(=O)(=O)NCc1ccccc1", "activity, positive = re-replication": "inactive: -2.74%"}, {"smiles": "Cc1ccc(S(=O)(=O)N2CCN(C(=O)CSc3n[nH]c(N)n3)CC2)c(C)c1", "Potency": "inconclusive [activator, full curve]"}, {"smiles": "CC(C)C(C)NC(=O)COc1ccc(S(=O)(=O)N2CCOCC2)cc1Cl", "note": "(configuration not stated)", "Potency": "active: 0.58 µM"}, {"smiles": "O=C(Nc1ccc(S(=O)(=O)N2CCOCC2)cc1)c1ccco1", "activity, positive = re-replication": "inactive: -10.7%"}, {"smiles": "O=C(Nc1cccc(Cl)c1)N1CCN(c2ncccn2)CC1", "Potency": "inconclusive [activator, partial curve, poor fit]"}, {"smiles": "Cc1cc(C(=O)CN2C(=O)C(=O)N(Cc3ccccc3)C2=O)c(C)n1CC1COc2ccccc2O1", "note": "(configuration not stated)", "Potency": "active: 4.61 µM"}, {"smiles": "O=C(N/N=C/c1ccccn1)c1[nH]c2ccc([N+](=O)[O-])cc2c1-c1ccccc1", "Potency": "inconclusive [activator, single point]"}, {"smiles": "Cc1cc(NC(=O)c2ccc(Cn3nc(C)c(Br)c3C)o2)no1", "Potency": "inconclusive [activator, full curve]"}, {"smiles": "CC(Cc1ccccc1)C(=O)Nc1ccccc1", "note": "(configuration not stated)", "Potency": "inconclusive [activator, full curve, poor fit]"}, {"smiles": "Cc1cc(C)nc(-n2nc(C)c(Sc3ccc(F)cc3)c2N)n1", "Potency": "active: 3.26 µM"}, {"smiles": "CN(CC(=O)NCc1ccco1)CC(=O)Nc1c(Cl)cccc1Cl", "Potency": "inconclusive [activator, partial curve, poor fit]"}, {"smiles": "O=C(O)c1ccccc1Nc1ccnc(C(F)(F)F)c1", "Potency": "inconclusive [activator, full curve, poor fit]"}, {"smiles": "CCOC(=O)C1CCCN(C(=O)Cn2sc3nc(C)cc(C)c3c2=O)C1", "note": "(configuration not stated)", "Potency": "inconclusive [activator, single point]"}, {"smiles": "O=C(c1cc(-c2cccc(Cl)c2)on1)N1CCN(c2ccc(F)cc2)CC1", "Potency": "inconclusive [activator, partial curve, poor fit]"}, {"smiles": "COc1ccc(/C=N/NC(=O)c2[nH]nc3c2CCc2ccccc2-3)cc1OC", "Potency": "active: 5.17 µM"}, {"smiles": "COc1cc(CN(C)CC(=O)c2[nH]c(C)c(C(C)=O)c2C)ccc1OC(F)F", "activity, positive = re-replication": "inactive: -0.576%"}, {"smiles": "Cc1ccccc1CN1[C@@H](CC2CCCCC2)COCCS1(=O)=O", "Potency": "inconclusive [activator, single point]"}, {"smiles": "CC(=O)c1sc(N/N=C\\c2ccccc2O)nc1C", "Potency": "active: 16.4 µM"}, {"smiles": "Cc1c(C(=O)N2CCc3ccccc3C2)oc2ccc(Br)cc12", "Potency": "inconclusive [activator, partial curve, poor fit]"}, {"smiles": "CC(C(=O)NC1CCCc2ccccc21)N1CCN(Cc2ccc3c(c2)OCO3)CC1", "note": "(configuration not stated)", "Potency": "inconclusive [activator, single point]"}, {"smiles": "O=c1/c(=C\\c2ccc(O)cc2)sc2n1C(c1ccccc1)C(c1ccccc1)=NN=2", "note": "(configuration not stated)", "Potency": "active: 7.31 µM"}, {"smiles": "O=c1[nH]c(-c2ccc(O)cc2)nc2scc(-c3cccs3)c12", "Potency": "active: 7.31 µM"}, {"smiles": "O=C(COc1ccc([N+](=O)[O-])cc1)Nc1ccc(S(=O)(=O)N2CCOCC2)cc1", "activity, positive = re-replication": "inactive: -3.21%"}, {"smiles": "CCNc1nc(NCC)nc(N/N=C/c2ccccc2)n1", "activity, positive = re-replication": "inactive: -3.62%"}, {"smiles": "Cc1cc(/C=C2/NC(=O)N(Cc3ccccc3F)C2=O)c(C)n1C", "Potency": "inconclusive [activator, partial curve, poor fit]"}, {"smiles": "O=C(COc1ccc(Oc2ccccc2)cc1)NCc1cn2ccccc2n1", "Potency": "active: 14.6 µM"}, {"smiles": "COc1cc(OC)cc(C(=O)OCC(=O)Nc2ccc(N3CCCCC3)cc2)c1", "Potency": "inconclusive [activator, single point]"}, {"smiles": "Cc1ccc(-c2cc(C(=O)Nc3ccccc3C)c3ccccc3n2)o1", "Potency": "inconclusive [activator, partial curve, poor fit]"}, {"smiles": "OCCn1c(-c2ccc3c(c2)OCO3)csc1=Nc1ccccc1", "Potency": "inconclusive [activator, partial curve, poor fit]"}, {"smiles": "CC(C)C(=O)NC(=S)NCC(=O)c1ccccc1", "Potency": "inconclusive [activator, full curve, poor fit]"}, {"smiles": "CCC(=O)NC(C)c1cc(Cl)c2ccccc2c1O", "note": "(configuration not stated)", "Potency": "inconclusive [activator, single point]"}, {"smiles": "COc1ccc(CNC(=O)c2ccc3nccnc3c2)cc1", "Potency": "inconclusive [activator, single point]"}, {"smiles": "COc1ccc(/C=C(/NC(=O)c2ccc(C)cc2)C(=O)N2CCCC2)cc1OC", "activity, positive = re-replication": "inconclusive: -35.5% [activator]"}, {"smiles": "Cc1ccc(NC(=S)Nc2ccc(OC(F)F)c(Cl)c2)cc1Cl", "Potency": "inconclusive [activator, single point]"}, {"smiles": "N=C1C(c2nc3ccccc3s2)=C(O)CN1Cc1ccccc1", "Potency": "active: 5.17 µM"}, {"smiles": "N#CC1=C(N)Oc2cc(N)ccc2C1C1CCCCC1", "note": "(configuration not stated)", "Potency": "active: 8.2 µM"}, {"smiles": "COc1ccc(N2CCN(C(=O)c3ccc4c(c3)OCO4)CC2)cc1", "Potency": "inconclusive [activator, partial curve, poor fit]"}, {"smiles": "O=C1Nc2ccc(Br)cc2C12NNc1ccccc1O2", "note": "(configuration not stated)", "Potency": "active: 23.1 µM"}, {"smiles": "Oc1ccc(C2=NNC(c3ccc(O)cc3)=NN2)cc1", "activity, positive = re-replication": "inactive: -6.94%"}, {"smiles": "O=C(OCCN1CCCCC1)c1cccc(F)c1", "Potency": "inconclusive [activator, single point]"}, {"smiles": "CCOC(=O)C(=O)NC12CC3CC(CC(C3)C1)C2", "Potency": "inconclusive [activator, partial curve, poor fit]", "activity, positive = re-replication": "inconclusive: -13.7% [activator]"}, {"smiles": "CCN(CC)S(=O)(=O)c1cc(C(=O)c2nccn2C)ccc1Cl", "activity, positive = re-replication": "inactive: 3.84%"}, {"smiles": "CCC(CC)c1nnc(NC(=O)c2cc(-c3ccccc3)nc3ccccc23)s1", "activity, positive = re-replication": "inactive: -64.1%"}, {"smiles": "O=C(c1cc(COc2c(F)cccc2F)on1)N(Cc1ccccc1)CC1CC1", "Potency": "inconclusive [activator, single point]"}, {"smiles": "CCOC(=O)c1c(NC(=O)C(C)OC(=O)C2=COCCO2)sc2c1CCCC2", "note": "(configuration not stated)", "Potency": "inconclusive [activator, single point]"}]}]}
